# In all, about 81,000 sequences were measured (“one-hybrid fitness for binding NBS DNA”: median about -0.1, highest 2% from about 0.36 on). Some of the results follow.
# B1: Caulobacter ParB omega fusion; a variant is named by its letters at X, in order, B8GW30 (parent)
# chain: MESVVVGEPGMSEGRRGLGRGLSALLGEVDAAPAQAPGEQLGGSREAPIEILQRNPDQPRRTFREEDLEDLSNSIREKGVLQPILVRPSPDTAGEYQIVAGERAWRAAQRAGLKTVPIMVRELDDLAVLEIGIIENVQRADLNVLEEALSYKVLMEKFERTQENIAQTIGKSXSHVANXMRLLXLPDEVQSYLVSGELTAXHARAIAAAADPVALAKQIIEGGLSVRETEALARKAPNLSAGKSKGGRPPRVKDTDTQALESDLSSVLGLDVSIDHRGSTGTLTITYATLEQLDDLCNRLTRGI
# Variants of: B1
# Test: one-hybrid fitness for binding NBS DNA (the Noc-binding site; scaled: cognate 1, non-cognate 0); higher = stronger binding
# Details: with NBS DNA site
# In short: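 Fitness here means the log change in variant-to-wild-type read ratio between plasmids sequenced before and after selection. That scale was set so cognate equals 1 and non-cognate equals 0. The selection was a bacterial one-hybrid screen of Caulobacter ParB libraries, four specificity codons randomised, in E. coli USO carrying a HIS3 reporter with the site 19 bp from the promoter, grown 48 hours at 37°C on M9-minus-histidine with 0.1 mM IPTG and 5 mM 3-AT.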
row,Variant,one-hybrid fitness for binding NBS DNA
1,QAFY,0.396
2,SIPS,≤ 0.2
3,LTSS,≤ 0.2
4,REGS,≤ 0.2
5,QCIN,≤ 0.2
6,DLDN,≤ 0.2
7,CMVS,≤ 0.2
8,ESSH,≤ 0.2
9,ATPV,≤ 0.2
10,QKSA,0.31
11,HAHY,≤ 0.2
12,TSMT,≤ 0.2
13,VFRS,≤ 0.2
14,ASNK,≤ 0.2
15,KNRA,≤ 0.2
16,RMDV,≤ 0.2
17,PTQR,≤ 0.2
18,CRIF,≤ 0.2
19,SGHG,≤ 0.2
20,LTGG,≤ 0.2
21,DLLL,≤ 0.2
22,QLIH,≤ 0.2
23,ALRS,≤ 0.2
24,SGTK,≤ 0.2
25,ARDF,≤ 0.2
26,SKYI,≤ 0.2

row,Variant,one-hybrid fitness for binding NBS DNA
1,QDIG,≤ 0.2
2,MKLF,≤ 0.2
3,LAWV,≤ 0.2
4,MMWA,≤ 0.2
5,FPAR,≤ 0.2
6,YENC,≤ 0.2
7,TASI,≤ 0.2
8,YWAT,≤ 0.2
9,VYRC,≤ 0.2
10,MMRG,≤ 0.2
11,QQVH,≤ 0.2
12,AQVC,≤ 0.2
13,HGSK,≤ 0.2
14,LQWQ,≤ 0.2
15,MVRR,≤ 0.2
16,VLTA,≤ 0.2
17,AQLW,≤ 0.2
18,YMWY,≤ 0.2
19,VVIS,≤ 0.2
20,YSDC,≤ 0.2
21,KSNI,≤ 0.2
22,VDVS,≤ 0.2
23,PHYV,≤ 0.2
24,EALE,≤ 0.2
25,WNKI,≤ 0.2
26,LWLW,≤ 0.2

row,Variant,one-hybrid fitness for binding NBS DNA
1,LSLA,≤ 0.2
2,LANL,≤ 0.2
3,QVYR,0.306
4,KKQT,0.393
5,IKRF,≤ 0.2
6,DVPY,≤ 0.2
7,VSQE,≤ 0.2
8,LLQV,≤ 0.2
9,QGYI,≤ 0.2
10,PHHE,≤ 0.2
11,MPPR,≤ 0.2
12,TGRC,≤ 0.2
13,SLHK,≤ 0.2
14,GTPK,≤ 0.2
15,PDLF,≤ 0.2
16,RMWK,≤ 0.2
17,LMWG,≤ 0.2
18,SHDR,≤ 0.2
19,HKTI,≤ 0.2
20,YISG,≤ 0.2
21,NDDD,≤ 0.2
22,KPNF,≤ 0.2
23,LALT,≤ 0.2
24,FHAA,≤ 0.2
25,WSLG,≤ 0.2
26,RVQY,≤ 0.2

row,Variant,one-hybrid fitness for binding NBS DNA
1,QGNC,≤ 0.2
2,GPLH,≤ 0.2
3,HAPW,≤ 0.2
4,KAYL,≤ 0.2
5,SLMR,≤ 0.2
6,TPLH,≤ 0.2
7,QSNK,≤ 0.2
8,QDVS,≤ 0.2
9,ATQA,≤ 0.2
10,ELSL,≤ 0.2
11,SEDC,≤ 0.2
12,DRDG,≤ 0.2
13,IGET,≤ 0.2
14,RFYQ,≤ 0.2
15,KPQG,≤ 0.2
16,NSTY,≤ 0.2
17,RQHD,≤ 0.2
18,CAIR,≤ 0.2
19,YTNK,≤ 0.2
20,TNII,≤ 0.2
21,CPLL,≤ 0.2
22,HCDP,≤ 0.2
23,RFPH,≤ 0.2
24,RWNE,≤ 0.2
25,IDKA,≤ 0.2
26,MMQS,≤ 0.2

row,Variant,one-hybrid fitness for binding NBS DNA
1,SPNM,≤ 0.2
2,QKMG,≤ 0.2
3,TPPH,≤ 0.2
4,NDVN,0.296
5,KTSL,≤ 0.2
6,QCHP,≤ 0.2
7,DPSC,≤ 0.2
8,GSTT,≤ 0.2
9,KQCS,≤ 0.2
10,EGSH,≤ 0.2
11,GAYY,≤ 0.2
12,SMDY,≤ 0.2
13,ANYW,≤ 0.2
14,EDEL,≤ 0.2
15,FLQT,≤ 0.2
16,RHII,≤ 0.2
17,ALLM,≤ 0.2
18,CTNM,≤ 0.2
19,QHRT,0.681
20,AAHT,≤ 0.2
21,WSTE,≤ 0.2
22,WLHT,≤ 0.2
23,NIMR,≤ 0.2
24,LLMC,≤ 0.2
25,HPCP,≤ 0.2
26,PQKR,0.252

row,Variant,one-hybrid fitness for binding NBS DNA
1,VWLS,≤ 0.2
2,VDEL,≤ 0.2
3,SMKF,≤ 0.2
4,NIRG,≤ 0.2
5,WCTG,≤ 0.2
6,SQKY,≤ 0.2
7,NMLS,≤ 0.2
8,DLLC,≤ 0.2
9,ACCE,≤ 0.2
10,KYKY,≤ 0.2
11,CRGS,≤ 0.2
12,IIDV,≤ 0.2
13,LMAG,≤ 0.2
14,YAQC,≤ 0.2
15,QFKG,≤ 0.2
16,KRIF,≤ 0.2
17,HMPR,≤ 0.2
18,CDAR,≤ 0.2
19,STYM,≤ 0.2
20,AGVG,≤ 0.2
21,CPGS,≤ 0.2
22,RWFK,≤ 0.2
23,REDH,≤ 0.2
